Test results as given in paper PMC4336329 (PLoS ONE, 2015).
The campaign covered roughly 310,000 compounds. About 2,200 (0.71%) showed an effect of 50% or more. The effect is printed as a negative number. The list shows a part of the results.

Target: human ether-à-go-go-related gene (hERG) potassium channel (human, UniProt Q12809)
Assay: primary screen, population patch clamp on CHO cells stably expressing hERG

Sequence of human ether-à-go-go-related gene (hERG) potassium channel (Q12809 whole entry, looked up): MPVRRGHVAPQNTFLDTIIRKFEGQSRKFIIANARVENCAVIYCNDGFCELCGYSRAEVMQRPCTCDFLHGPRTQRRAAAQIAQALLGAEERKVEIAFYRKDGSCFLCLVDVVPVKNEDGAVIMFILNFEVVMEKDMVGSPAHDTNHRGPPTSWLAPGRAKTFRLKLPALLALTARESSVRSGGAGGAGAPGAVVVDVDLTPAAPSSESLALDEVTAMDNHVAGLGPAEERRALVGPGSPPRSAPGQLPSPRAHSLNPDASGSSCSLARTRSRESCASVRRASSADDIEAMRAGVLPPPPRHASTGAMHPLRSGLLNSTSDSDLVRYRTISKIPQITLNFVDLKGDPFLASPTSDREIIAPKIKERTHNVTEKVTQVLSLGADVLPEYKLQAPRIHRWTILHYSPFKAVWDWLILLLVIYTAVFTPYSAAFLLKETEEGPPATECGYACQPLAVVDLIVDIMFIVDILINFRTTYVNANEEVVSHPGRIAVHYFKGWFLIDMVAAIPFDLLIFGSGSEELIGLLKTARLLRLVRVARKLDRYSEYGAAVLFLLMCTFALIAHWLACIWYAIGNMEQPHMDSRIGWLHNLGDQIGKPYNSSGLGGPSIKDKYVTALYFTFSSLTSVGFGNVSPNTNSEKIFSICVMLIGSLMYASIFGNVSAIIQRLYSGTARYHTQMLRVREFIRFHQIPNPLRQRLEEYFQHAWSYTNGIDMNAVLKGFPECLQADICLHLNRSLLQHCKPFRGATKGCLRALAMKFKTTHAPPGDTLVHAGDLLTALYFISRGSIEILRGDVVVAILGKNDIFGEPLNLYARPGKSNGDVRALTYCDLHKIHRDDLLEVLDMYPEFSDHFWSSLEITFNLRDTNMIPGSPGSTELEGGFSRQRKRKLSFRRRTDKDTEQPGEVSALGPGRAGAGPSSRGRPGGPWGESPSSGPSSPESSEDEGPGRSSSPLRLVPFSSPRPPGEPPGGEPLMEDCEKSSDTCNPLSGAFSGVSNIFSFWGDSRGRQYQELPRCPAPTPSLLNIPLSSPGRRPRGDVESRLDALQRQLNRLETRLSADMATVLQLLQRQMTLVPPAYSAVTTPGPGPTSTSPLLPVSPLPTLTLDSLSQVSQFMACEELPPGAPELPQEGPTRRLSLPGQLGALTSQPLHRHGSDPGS

SMILES	hERG current change (%, negative = inhibition) at 1uM [%]
COc1cc(CN2CCNC(=O)C2CC(=O)N2CCCO2)cc(OC)c1 (centres unmarked)	17.6
O=C(Nc1nnc(-c2ccc(Br)cc2)o1)c1ccco1	13.8
COc1ccc(NC(=O)CCC2CCCCC2)cc1S(=O)(=O)N1CCCCC1	10.4
O=C(O)c1ccccc1C(=O)NNc1ccc(F)cc1	13.6
CCOc1ccc(NC(=S)N(CCc2c(C)[nH]c3ccc(C)cc23)Cc2ccncc2)cc1	6.5
O=C(N/N=C/c1c[nH]c2ccc(Br)cc12)c1ccn(Cc2ccc(Cl)cc2)n1	13.9
NS(=O)(=O)c1ccc2nc(NC(=O)CS(=O)(=O)c3ccccc3)sc2c1	15.7
COc1ccc(N2CC(C(=O)Nc3c4c(nn3-c3ccc(OC)cc3)CS(=O)(=O)C4)CC2=O)cc1 (centres unmarked)	16.5
Cc1ccc(NC(=O)CSc2nnc(CNC(=O)c3ccccc3F)o2)cc1Cl	15.4
COc1cccc(NC(=O)COC(=O)c2c(F)cccc2F)c1	2.58
COc1ccc(NS(=O)(=O)c2ccc(N3CCOCC3)c(NC(=O)c3ccc(F)cc3)c2)cc1	3.64
O=C(O)CC/C(=N\NC(=O)c1ccc(F)cc1)c1ccc(Br)cc1	8.76
Cc1cc(N=NC(=O)c2ccccc2O)c2ccccc2c1O	6.62
O=C1CN(C(=O)COC(=O)C2CC(=O)N(Cc3ccco3)C2)c2ccccc2N1 (centres unmarked)	-2.61
CC(=O)COc1ccc(-c2csnn2)cc1	8.04
CCn1cc(S(=O)(=O)Nc2cc(F)ccc2C)cn1	16.5
CC(=O)Nc1ccc(S(=O)(=O)NC2CCS(=O)(=O)C2)cc1Cl (centres unmarked)	11.1
COc1cc(C(=O)NCC(=O)OCn2nnc3ccccc3c2=O)cc(OC)c1OC	22.8
CS(=O)(=O)N1CCC(C(=O)Nc2ccc(OCc3ccccc3)cc2)CC1	15.1

SMILES	hERG current change (%, negative = inhibition) at 1uM [%]
O=C(CSc1nnc(COc2ccccc2)o1)Nc1nccs1	10.5
Cc1ccccc1NC(=S)N(CCN(C)C)C(C)c1ccccn1 (centres unmarked)	1.34
O=C(NCCc1cccc(C(F)(F)F)c1)C1CCC(=O)N(C2CC2)C1 (centres unmarked)	3.79
COc1ccc([N+](=O)[O-])cc1NS(=O)(=O)c1cc(C(=O)NCc2cccnc2)ccc1Cl	2.04
CC(=O)c1ccc(N2CCN(CC(=O)Nc3cc(C)on3)CC2)cc1	8.6
CC(=O)N1c2ccc(S(=O)(=O)N3CCC(C(=O)NCc4ccc(Cl)cc4)CC3)cc2CC1C (centres unmarked)	10.9
O=S(=O)(NCCc1ccccc1)c1ccc(Br)s1	6.08
COCCNC(=O)c1cc2c(=O)n(C)c3ccccc3c2n1C	13
CCCn1c2c(c(O)c(C(=O)Nc3ccc(OCC)cc3)c1=O)CCCC2	1.43
CS(=O)(=O)c1ncc(CO)n1Cc1ccccc1	9.59
Cc1nnc(SCC(=O)Nc2c(C)n(C)n(-c3ccccc3)c2=O)n1Cc1ccccc1	12.1
Cc1nc2ccccc2n1CSc1ccccc1	-6.18
O=C(N/N=C/C=C/c1ccc2c(c1)OCO2)C(O)c1ccccc1 (centres unmarked)	5.04
COc1ccc2c(c1)cc(C(=O)N[C@H](C(=O)N1CCC[C@H]1C(=O)O)C(C)C)n2C	12.9
COc1ccccc1CN(Cc1nc2ccccc2c(=O)[nH]1)S(=O)(=O)c1ccc2ccccc2c1	13.7
O=C(/C=C\c1ccccc1)Nc1nccs1	10.8
CCSc1nc(-c2cccnc2)ccc1C#N	-1.54
Fc1ccccc1CNC(=S)NC1CCCCC1	15.2
Cc1ccccc1-n1c(SCC(=O)Nc2ccccc2)nc2nc3c(cc2c1=O)CCCC3	8.27

SMILES	hERG current change (%, negative = inhibition) at 1uM [%]
COc1ccc(-n2c(C)cc(-c3cn4cccc(C)c4n3)c2C)cc1	-11
Nn1c(C2CCCCC2)nc2ccccc2c1=O	0.631
Cc1cc(C)cc(NC(=O)N2CCCC2C(=O)NCc2ccco2)c1 (centres unmarked)	11.6
CCCc1c(C(=O)N/N=C/c2cccc(OCc3ccc(F)cc3)c2)nnn1-c1nonc1N	12.3
O=C(O)Cc1sc(-c2ccccc2)nc1-c1ccccc1	12.5
Cc1ccc(C)c(NC(=O)c2cc(=O)c3ccccc3o2)c1	8.95
Cc1c(C(=O)Nc2ccc3c(c2)OCO3)oc2ccccc12	7.82
CN(C(=O)CC1C(=O)NCCN1Cc1ccc(F)c(F)c1)C1CCCCC1 (centres unmarked)	10.3
CCOc1ccc(N2C(=O)C3ON(c4ccccc4)C(c4cccs4)C3C2=O)cc1 (centres unmarked)	14.5
Cc1cc(-c2nnc(SCC(=O)Nc3ccc(Cl)cn3)n2N)n[nH]1	2.87
CCOc1cc2[nH]c(=S)n(CCC(=O)NCc3ccc(OC)cc3)c(=O)c2cc1OCC	19.3
Cc1ccccc1-n1nc(C)c2cc(C(=O)N3CCOCC3)sc21	13.3
CN(C(=O)COC(=O)c1cc([N+](=O)[O-])ccc1Cl)c1ccccc1	4.19
CC(C)N1C(=O)CCC1C(=O)NCCc1ccccc1 (centres unmarked)	-4.91
O=C(CCCCO)CCCCCCCC[C@H]1N[C@H](CO)[C@H](O)[C@@H]1O[C@@H]1O[C@H](CO)[C@@H](O)[C@H](O)[C@H]1O	8.58
CC(=O)Nc1ccc(C(=O)OCC(=O)N(Cc2ccccc2)C(C)(C)C)cc1	5.24
Cc1cc(C(F)(F)F)nn1Cc1n[nH]c(=S)n1-c1ccc(F)cc1	9.76
N#CCC(=O)Nc1ccc(C(=O)OCC(=O)NC(=O)Cc2ccccc2)cc1	13.8
